Here are results for 66 cell lines from the supplement of paper PMC4967469.

By IC50 is meant the dose at which the fit gives 50% viability; a fit beyond the top or the lowest dose is shown as a bound at that dose. AUC, from the same fit, is the share of area under the viability curve across the 256-fold dose range: 1 means no effect, lower means more sensitive. The top dose, if marked as inferred, was derived from the fitted curves, not read from the paper.

Compound in the assay: CCOc1cc2ncc(C#N)c(Nc3ccc(F)c(Cl)c3)c2cc1NC(=O)/C=C/CN(C)C [EKB-569]
Put plainly: Viability of human cancer cell lines after 72 h of drug (GDSC screen). As to conditions: top dose inferred. Here is the method:
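Human cancer cell lines in 384-well plates, medium with 10% serum, drug for 72 h over a 256-fold dose range (nine 2-fold or five 4-fold steps up to the top dose). Adherent lines were fixed and stained with the nucleic acid dye Syto60, suspension lines read with resazurin; signal relative to control wells, capped at 0 and 100%. One two-parameter sigmoid per drug and line, fitted in a mixed model over all curves with the slope shared within a line.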
For the cell line “COLO-680N (oesophagus, adherent, top dose 2.5 µM)”, the AUC stood at 0.933 and the IC50 (as a rule, the concentration needed to halve the response being measured) was above 2500 nM.
For “NCI-H2009 (lung adenocarcinoma, adherent, top dose 2.5 µM)” the same measures were 0.977 and above 2500 nM.
Turning to “LB996-RCC (kidney, adherent, top dose 2.5 µM)”, the AUC is 0.958 and the IC50 was above 2500 nM.
Consider “CESS (acute myeloid leukaemia, suspension, top dose 2.5 µM)”, for which the AUC is 0.655 and the IC50 came out at 391 nM.
As for “HMV-II (melanoma, adherent, top dose 2.5 µM)”, the AUC worked out at 0.915 and the IC50 is above 2500 nM.
For the cell line “JHU-022 (head and neck, adherent, top dose 2.5 µM)”, the AUC was determined as 0.921 and the IC50 is above 2500 nM.
On to “EFO-21 (ovary, adherent, top dose 2.5 µM)”, for which the AUC came out at 0.773 and the IC50 is 1430 nM.
“LNCaP-Clone-FGC (prostate, adherent, top dose 2.5 µM)”: the AUC was 0.861 and the IC50 is above 2500 nM.
The matching figures for “MDA-MB-157 (breast, adherent, top dose 2.5 µM)”: 0.988 and above 2500 nM.
On to “T-24 (bladder, adherent, top dose 2.5 µM)”, for which the AUC was found to be 0.91 and the IC50 is above 2500 nM.
As to “Hs-445 (Hodgkin lymphoma, suspension, top dose 2.5 µM)”, the AUC came to 0.71 and the IC50 amounted to 579 nM.
For the cell line SKN (uterus, adherent, top dose 2.5 µM), the AUC was 0.949 and the IC50 is above 2500 nM.
With “22RV1 (prostate, adherent, top dose 2.5 µM)”, the AUC was determined as 0.972 and the IC50 was above 2500 nM.
Consider “WSU-NHL (lymphoid neoplasm, suspension, top dose 2.5 µM)”, for which the AUC stood at 0.95 and the IC50 is above 2500 nM.
Turning to “CTV-1 (acute myeloid leukaemia, suspension, top dose 20 µM)”, the AUC was 0.116 and the IC50 was 109 nM.
As to “GOTO (neuroblastoma, adherent, top dose 2.5 µM)”, the AUC was 0.955 and the IC50 is above 2500 nM.
On to “UWB1.289 (ovary, adherent, top dose 2.5 µM)”, for which the AUC came out at 0.883 and the IC50 is above 2500 nM.
As for “MDA-MB-231 (breast, adherent, top dose 2.5 µM)”, the AUC was 0.96 and the IC50 is above 2500 nM.
With “SW626 (ovary, adherent, top dose 2.5 µM)”, the AUC amounted to 0.874 and the IC50 is above 2500 nM.
For “OAW-28 (ovary, adherent, top dose 2.5 µM)” the same measures were 0.862 and above 2500 nM.
“HOP-92 (large cell lung carcinoma, adherent, top dose 2.5 µM)”: the AUC is 0.981 and the IC50 is above 2500 nM.
The matching figures for “EMC-BAC-2 (lung adenocarcinoma, adherent, top dose 2.5 µM)”: 0.719 and 741 nM.
In the case of “YAPC (pancreas, adherent, top dose 2.5 µM)”, the AUC worked out at 0.954 and the IC50 is above 2500 nM.
Consider “HTC-C3 (thyroid, adherent, top dose 2.5 µM)”, for which the AUC came to 0.739 and the IC50 is 830 nM.
On to “MV-4-11 (leukaemia, suspension, top dose 2.5 µM)”, for which the AUC came to 0.47 and the IC50 stood at 131 nM.
Take “NCI-H1048 (small cell lung carcinoma, adherent, top dose 2.5 µM)”: the AUC stood at 0.924 and the IC50 is above 2500 nM.
The matching figures for “HEC-1 (endometrium, adherent, top dose 2.5 µM)”: 0.981 and above 2500 nM.
For “LN-405 (glioma, adherent, top dose 2.5 µM)” the same measures were 0.973 and above 2500 nM.
“NB5 (neuroblastoma, adherent, top dose 2.5 µM)”: the AUC stood at 0.851 and the IC50 came to 1960 nM.
Regarding “NCI-H1651 (lung adenocarcinoma, adherent, top dose 2.5 µM)”, the AUC came out at 0.985 and the IC50 is above 2500 nM.
As for “JIMT-1 (breast, adherent, top dose 2.5 µM)”, the AUC worked out at 0.894 and the IC50 is above 2500 nM.
For “COR-L279 (small cell lung carcinoma, suspension, top dose 2.5 µM)” the same measures were 0.989 and above 2500 nM.
With “SW1116 (large intestine, adherent, top dose 2.5 µM)”, the AUC was found to be 0.986 and the IC50 was above 2500 nM.
Turning to “GR-ST (lymphoblastic leukaemia, suspension, top dose 2.5 µM)”, the AUC is 0.866 and the IC50 is above 2500 nM.
For “Caov-3 (ovary, adherent, top dose 2.5 µM)”, the AUC was 0.93 and the IC50 was above 2500 nM.
For “BB30-HNC (head and neck, adherent, top dose 2.5 µM)” the same measures were 0.623 and 337 nM.
Turning to “NCI-H2030 (lung adenocarcinoma, adherent, top dose 2.5 µM)”, the AUC worked out at 0.767 and the IC50 turned out to be 1050 nM.
Turning to “NCI-H1623 (lung adenocarcinoma, adherent, top dose 2.5 µM)”, the AUC came out at 0.955 and the IC50 is above 2500 nM.
Take “SK-OV-3 (ovary, adherent, top dose 2.5 µM)”: the AUC was determined as 0.764 and the IC50 amounted to 1130 nM.
On to “EKVX (lung adenocarcinoma, adherent, top dose 20 µM)”, for which the AUC came out at 0.732 and the half-maximal inhibitory concentration (IC50) was determined as 12600 nM.
The matching figures for “NY (osteosarcoma, adherent, top dose 2.5 µM)”: 0.979 and above 2500 nM.
Regarding “SNU-C2B (large intestine, adherent, top dose 20 µM)”, the AUC turned out to be 0.613 and the IC50 stood at 2830 nM.
Take “JVM-3 (lymphoid neoplasm, suspension, top dose 2.5 µM)”: the AUC came to 0.975 and the IC50 is above 2500 nM.
As for “TT2609-C02 (thyroid, adherent, top dose 2.5 µM)”, the AUC came out at 0.871 and the IC50 was above 2500 nM.
Turning to “WIL2-NS (lymphoid neoplasm, suspension, top dose 2.5 µM)”, the AUC was determined as 0.829 and the IC50 came to 1180 nM.
On to “NCI-H1304 (small cell lung carcinoma, suspension, top dose 2.5 µM)”, for which the AUC worked out at 0.985 and the IC50 was above 2500 nM.
For the cell line “U-118-MG (glioma, adherent, top dose 2.5 µM)”, the AUC stood at 0.98 and the IC50 was above 2500 nM.
With “SN12C (kidney, adherent, top dose 2.5 µM)”, the AUC worked out at 0.954 and the IC50 is above 2500 nM.
Consider “BT-20 (breast, adherent, top dose 2.5 µM)”, for which the AUC stood at 0.893 and the IC50 was above 2500 nM.
For the cell line “SK-MES-1 (lung squamous cell carcinoma, adherent, top dose 2.5 µM)”, the AUC worked out at 0.416 and the IC50 came to 90 nM.
For “RCC10RGB (kidney, adherent, top dose 2.5 µM)”, the AUC worked out at 0.885 and the IC50 is above 2500 nM.
Consider “KOSC-2 (head and neck, adherent, top dose 2.5 µM)”, for which the AUC turned out to be 0.985 and the IC50 was above 2500 nM.
“CCK-81 (large intestine, adherent, top dose 20 µM)”: the AUC is 0.103 and the IC50 is below 78.1 nM.
The matching figures for “CP66-MEL (melanoma, adherent, top dose 2.5 µM)”: 0.971 and above 2500 nM.
For “EW-1 (Ewing sarcoma, semi-adherent, top dose 2.5 µM)” the same measures were 0.751 and 762 nM.
As to “LN-229 (glioma, adherent, top dose 2.5 µM)”, the AUC amounted to 0.94 and the IC50 is above 2500 nM.
For “SNU-182 (liver, adherent, top dose 2.5 µM)” the same measures were 0.861 and 2260 nM.
As to “BE2-M17 (neuroblastoma, adherent, top dose 2.5 µM)”, the AUC was 0.981 and the IC50 was above 2500 nM.
On to “Hs633T (fibrosarcoma, adherent, top dose 2.5 µM)”, for which the AUC turned out to be 0.907 and the IC50 came to 2320 nM.
Regarding “VMRC-MELG (melanoma, adherent, top dose 2.5 µM)”, the AUC came to 0.983 and the IC50 was above 2500 nM.
Regarding “HCC1937 (breast, adherent, top dose 2.5 µM)”, the AUC stood at 0.883 and the IC50 is above 2500 nM.
Regarding “KP-3 (pancreas, adherent, top dose 2.5 µM)”, the AUC worked out at 0.772 and the IC50 came to 1150 nM.
Take “NCI-H647 (non-small cell lung carcinoma, adherent, top dose 2.5 µM)”: the AUC was found to be 0.771 and the IC50 came out at 1000 nM.
Turning to “HO-1-N-1 (head and neck, adherent, top dose 2.5 µM)”, the AUC was determined as 0.952 and the IC50 is above 2500 nM.
Take “CHSA0011 (chondrosarcoma, adherent, top dose 2.5 µM)”: the AUC came to 0.94 and the IC50 was above 2500 nM.
Consider “KMH-2 (thyroid, adherent, top dose 2.5 µM)”, for which the AUC is 0.927 and the IC50 was above 2500 nM.
